The record followed here is paper PMC4336329 (PLoS ONE, 2015).

Out of some 310,000 compounds screened, about 2,200 (0.71%) showed an effect of 50% or more. Effects have a minus sign here. The list shows a part of the results.

In the test the target is human ether-à-go-go-related gene (hERG) potassium channel (human, UniProt Q12809). Nature of the test: primary screen, population patch clamp on CHO cells stably expressing hERG.
human ether-à-go-go-related gene (hERG) potassium channel, sequence (Q12809 whole entry, looked up): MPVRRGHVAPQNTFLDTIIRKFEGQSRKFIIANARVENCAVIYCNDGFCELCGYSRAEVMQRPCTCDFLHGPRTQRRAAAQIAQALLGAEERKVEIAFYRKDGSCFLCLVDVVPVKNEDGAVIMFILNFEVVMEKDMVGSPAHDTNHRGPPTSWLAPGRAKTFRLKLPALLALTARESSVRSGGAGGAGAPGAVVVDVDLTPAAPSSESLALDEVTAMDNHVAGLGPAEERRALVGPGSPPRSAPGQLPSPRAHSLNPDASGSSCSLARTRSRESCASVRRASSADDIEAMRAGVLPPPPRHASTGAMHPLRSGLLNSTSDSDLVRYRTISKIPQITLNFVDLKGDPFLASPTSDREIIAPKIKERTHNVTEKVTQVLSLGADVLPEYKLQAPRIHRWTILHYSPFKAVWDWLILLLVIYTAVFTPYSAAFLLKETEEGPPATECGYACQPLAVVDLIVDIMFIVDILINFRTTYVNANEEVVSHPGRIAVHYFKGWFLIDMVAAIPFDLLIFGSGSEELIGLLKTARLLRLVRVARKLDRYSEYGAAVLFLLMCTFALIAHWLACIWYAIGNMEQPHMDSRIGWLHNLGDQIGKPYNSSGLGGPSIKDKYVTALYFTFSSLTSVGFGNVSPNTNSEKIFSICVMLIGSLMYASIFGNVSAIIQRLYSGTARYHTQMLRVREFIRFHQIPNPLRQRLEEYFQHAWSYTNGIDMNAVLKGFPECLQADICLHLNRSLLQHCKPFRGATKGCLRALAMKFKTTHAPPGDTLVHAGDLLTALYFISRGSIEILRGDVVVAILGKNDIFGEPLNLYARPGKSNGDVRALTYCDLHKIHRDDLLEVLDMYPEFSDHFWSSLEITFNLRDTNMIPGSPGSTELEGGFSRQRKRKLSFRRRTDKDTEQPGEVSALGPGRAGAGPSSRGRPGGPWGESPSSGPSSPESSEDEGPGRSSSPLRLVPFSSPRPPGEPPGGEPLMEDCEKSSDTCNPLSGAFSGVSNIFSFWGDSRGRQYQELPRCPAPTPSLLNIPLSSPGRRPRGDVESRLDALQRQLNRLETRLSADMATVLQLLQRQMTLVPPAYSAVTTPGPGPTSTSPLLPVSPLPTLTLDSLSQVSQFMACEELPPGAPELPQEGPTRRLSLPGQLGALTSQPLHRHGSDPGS
Consider `COc1ccc(N/C=C(\C(C)=O)c2ccc(OC)c(OC)c2)cc1OC`, for which the “hERG current change (%, negative = inhibition) at 1uM” value is 13.4%.
For the compound `CCOC(=O)c1cc(CC)sc1NC(=O)COC(=O)c1cc[n+]([O-])cc1`, the “hERG current change (%, negative = inhibition) at 1uM” value worked out at 9.84%.
In the case of `O=C1CC(c2cccc(Cl)c2)c2cc3c(cc2N1)CCC3` (centres unmarked) it was 18.3%; in that of `COc1ccc(-c2nc(C#N)c(N3CCCCC3)o2)cc1`, 9.1%; in that of `CCCCOC(=O)c1cc(=O)[nH]c(=O)[nH]1`, 14%.
To `COc1ccccc1-c1nc(SCC(=O)O)n[nH]1` belongs 3.9%.
As to `O=C(Nc1ccc2c(c1)C(=O)N(C1CCCCC1)C2=O)C1CCCO1` (centres unmarked), the “hERG current change (%, negative = inhibition) at 1uM” value was 1.06%.
With `Cc1cc(N2CCN(c3nc(-c4ccc([N+](=O)[O-])cc4)cs3)CC2)c2ccccc2n1`, the “hERG current change (%, negative = inhibition) at 1uM” value worked out at 2.53%.
In the case of `CCc1nc(C)c(-c2ccccc2)c(=O)[nH]1`, the “hERG current change (%, negative = inhibition) at 1uM” value is recorded as 15.1%.
On to `O=C1CC(N2CCCc3ccccc32)C(=O)N1c1ccccc1Cl` (centres unmarked), for which the “hERG current change (%, negative = inhibition) at 1uM” value was 7.45%.
In the case of `COC(=O)C1C/C(=N\NS(=O)(=O)c2ccc(C)cc2)c2ccsc2C1` (centres unmarked) it was 7.94%; in that of `COc1ccc(C(=O)COC(=O)CCn2nnc(-c3cccc(O)c3OC)n2)cc1`, 11.6%.
As to `CC1CCCN(C(=O)Cn2c(-c3nonc3N)nc3ccccc32)C1` (centres unmarked), the “hERG current change (%, negative = inhibition) at 1uM” value is given as 5.09%.
To `COc1cc(Cl)c(C)cc1NC(=O)COC(=O)CCc1nc2ccccc2c(=O)[nH]1` belongs 9.06%; to `CCN(c1ccccc1)S(=O)(=O)c1ccc(C(=O)Nc2nnc(CSC)o2)cc1`, 5.5%; to `Nn1c(SCC(=O)Nc2cccc(F)c2)nnc1C1CCCCC1`, 16.6%.
To `Cc1c(Nc2nc3ccccc3nc2NS(=O)(=O)c2ccccc2)c(=O)n(-c2ccccc2)n1C` belongs -40.2%.
To `N#Cc1ccc(CSc2nnc(-c3ccncc3)o2)cc1` belongs -3.56%; to `Cc1cc(OC(=O)c2ccc(C(F)(F)F)cc2)c([N+](=O)[O-])c(=O)[nH]1`, 10.4%; to `CCCS(=O)(=O)c1c(S(=O)(=O)CCC)c2cnccn2c1C(=O)c1ccc(CC)cc1`, 0.628%.
`COc1cc(OC)cc(C(=O)NNC(=O)c2cc(=O)[nH]c3ccccc23)c1`: the “hERG current change (%, negative = inhibition) at 1uM” value is listed as -2.29%.
As to `O=C(Nc1ccccc1)NC1CCCc2ccccc21` (centres unmarked), the “hERG current change (%, negative = inhibition) at 1uM” value worked out at 17.5%.
To `COc1ccnc2c1c(=O)n(Cc1ccc(F)cc1)c(=O)n2C` belongs 12.5%; to `COc1ccc2nc3ccccc3nc2c1NC(=O)c1ccc(Cl)cc1`, 13.7%.
Regarding `CN(C)S(=O)(=O)c1ccc(N2CCCC2)c(C(=O)Nc2nc3ccccc3s2)c1`, the “hERG current change (%, negative = inhibition) at 1uM” value is given as 6.61%.
As to `COc1ccc2c(c1)C(c1ccc(N3CCOCC3)cc1)=NNC(c1cccnc1)=N2`, the “hERG current change (%, negative = inhibition) at 1uM” value worked out at 8.97%.
For the compound `O=C(NCC(=O)N(c1ccccc1F)C(C(=O)NC1CCCC1)c1ccco1)c1ccco1` (centres unmarked), the “hERG current change (%, negative = inhibition) at 1uM” value was 2.58%.
`O=C(CCSCCC(=O)NCCN1CCOCC1)NCCN1CCOCC1`: the “hERG current change (%, negative = inhibition) at 1uM” value turned out to be 13.5%.
To `COc1ccc(O)c(/C=N/N2CCCCC2)c1` belongs 6.85%; to `O=C(Nc1ccc(F)cc1)Nc1cnccn1`, 14%; to `Cc1cc(C)c([N+](=O)[O-])cc1NC(=O)CCS(=O)(=O)c1ccccc1`, -3.95%.
In the case of `CCn1c(SCC(=O)Nc2cc(C)on2)nnc1-c1ccncc1` it was 16.3%.
Turning to `COc1ccccc1N1CCN(C(=O)CN(Cc2ccccc2)S(C)(=O)=O)CC1`, the “hERG current change (%, negative = inhibition) at 1uM” value is on record as -7.63%.
Regarding `Cc1ccccc1NC(=O)C1CCCN(C(=O)NCc2ccccc2)C1` (centres unmarked), the “hERG current change (%, negative = inhibition) at 1uM” value is on record as 13.6%.
In the case of `Cc1cc(C)cc(N(CC(=O)O)S(=O)(=O)c2c(C)noc2C)c1` it was 6.63%; in that of `CCOC(=O)C1=C(COC(=O)C(CC)Oc2ccccc2)NC(=O)NC1C` (centres unmarked), 6.26%; in that of `Cc1ccc(NC(=S)N2CCCC(CO)C2)c(C)c1` (centres unmarked), 12.6%.
In the case of `Cc1nc2ccccc2c(=O)n1NC(=O)c1ccc(F)cc1Cl` it was 2.12%; in that of `COc1ccccc1C(c1nnnn1C(C)(C)C)N1CCN(C(=O)c2ccco2)CC1` (centres unmarked), -13.2%.
To `COc1ccc(-c2n[nH]c(=S)o2)c(OC)c1` belongs 18.2%.
`COc1cccc2cc(C(=O)C3=C(O)C(=O)N(c4cc(C)on4)C3c3cccs3)oc12` (centres unmarked): the “hERG current change (%, negative = inhibition) at 1uM” value turned out to be 14.8%.
For the compound `Cc1onc(-c2c(Cl)cccc2Cl)c1NC(=O)N1CCSCC1`, the “hERG current change (%, negative = inhibition) at 1uM” value was found to be 5.17%.
Turning to `Cc1ccc(/C=N/NC(=O)CN2CCN(Cc3ccccc3)CC2)o1`, the “hERG current change (%, negative = inhibition) at 1uM” value came to 7.9%.
Take `O=C(C1CCCN(Cc2ccncc2)C1)N1CCc2ccccc2C1.O=C(O)C(=O)O` (centres unmarked): the “hERG current change (%, negative = inhibition) at 1uM” value was 7.77%.
